The source of these data is publication PMC4242493.

The list shows a part of the results. The list includes weakly bound sequences.

The target of this test is MaxL homodimer (UniProt P61244). The test is described as follows: universal protein-binding microarray (PBM). The conditions noted are these: PBS-based mixture, 10 nM His-tagged protein dimer, 2% milk, 200 ng/uL BSA, 50 ng/uL salmon testes DNA, 0.02% TX-100; detection with Alexa 488 anti-His …; high values mean tight binding; most listed sequences are background and not binding sites; double strand, one strand shown.
Sequence of UniProt P61244 (P61244 whole entry): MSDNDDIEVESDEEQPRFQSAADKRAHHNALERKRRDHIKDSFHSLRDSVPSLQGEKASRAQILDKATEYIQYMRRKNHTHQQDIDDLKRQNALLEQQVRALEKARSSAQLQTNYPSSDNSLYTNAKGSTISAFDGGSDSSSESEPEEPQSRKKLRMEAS
With AGCAAGGC, the binding signal (normalized occupancy) stood at 0.0744. The result for CACAGGCA reads 0.0832. Turning to ACATCCAA, the binding signal (normalized occupancy) turned out to be 0.07. The result for AGTCCCCC reads 0.0801. Then GGACCGAC, with 0.0727.

On to CTCCTTCA, for which the binding signal (normalized occupancy) turned out to be 0.0734. The result for ATTCCGTC reads 0.0768; that for ACCCAAAG, 0.072. Then AACGCCAC, with 0.0741; and GTGCTCAA, with 0.0771. The result for ACGATATA reads 0.0854. Turning to CGACACGC, the binding signal (normalized occupancy) was 0.09.

On to GCCACACC, for which the binding signal (normalized occupancy) is 0.085. For the sequence ACAGTGTA, the binding signal (normalized occupancy) amounted to 0.0763. The result for GCACTCTA reads 0.0786. The result for TCCTCCCA reads 0.077; that for ATCCCGTG, 0.0875; that for CCCGCTCA, 0.0743. The result for ATTCCACC reads 0.082; that for GCTAGACA, 0.0691; that for AAAAGACG, 0.0726. AATGTCGG: the binding signal (normalized occupancy) was 0.0774. The result for CAATAATC reads 0.0771; that for CTAACAGA, 0.0747. As to GAGCGTAC, the binding signal (normalized occupancy) is 0.0725. Then GTTACTGA, with 0.0729; and TTCTAGAA, with 0.0693. Regarding AACCTTTC, the binding signal (normalized occupancy) amounted to 0.0742. The result for CTGGCAGC reads 0.0699; that for AAGAAGGA, 0.0794. As to CATGTGTC, the binding signal (normalized occupancy) is 0.125. Then CTTAGAGC, with 0.0674; and AGTTACGG, with 0.0714; and AAATGAGA, with 0.0767.

In the case of AGGATGCA, the binding signal (normalized occupancy) was determined as 0.0762. Then GGGGGCTA, with 0.0764; and AAACCCCA, with 0.0788. Then CCGGCCTA, with 0.067; and CAAACGTC, with 0.0739.

Regarding CAGGGACC, the binding signal (normalized occupancy) was determined as 0.0713.

Take ATATGAGG: the binding signal (normalized occupancy) is 0.0865. As to GACATAAC, the binding signal (normalized occupancy) amounted to 0.0839. With CATCCGCA, the binding signal (normalized occupancy) turned out to be 0.077. The result for CCTCTTGA reads 0.0745; that for ATTCGGAC, 0.0776; that for AACCCCGT, 0.0803. For CCTGGTCC, the binding signal (normalized occupancy) came out at 0.0714.

ATAACCAC: the binding signal (normalized occupancy) was determined as 0.0843. Then AATGGCTC, with 0.0777; and AGCCGTTG, with 0.0696. The result for GCCTGCGC reads 0.0702; that for AGTTATAG, 0.0847.

Regarding ATTGAGAA, the binding signal (normalized occupancy) is 0.0755. As to CCCCGGGC, the binding signal (normalized occupancy) amounted to 0.0667. The result for ACGCCTTC reads 0.0729; that for GGTTATGA, 0.0822.

Regarding CCGATGCC, the binding signal (normalized occupancy) was determined as 0.0718.

On to AATGCCCA, for which the binding signal (normalized occupancy) is 0.0798.

As to GCCATCCC, the binding signal (normalized occupancy) came out at 0.0771. Then CCCGAAAG, with 0.074; and AACTTGAT, with 0.081. CCCCCACA: the binding signal (normalized occupancy) is 0.0839. The result for AATGTCTG reads 0.0745; that for CTGAAGAA, 0.0692. Consider CTGTGCGC, for which the binding signal (normalized occupancy) turned out to be 0.0728. Then AATTGCGA, with 0.0732; and CGGAGCTA, with 0.0735; and ATTACGAG, with 0.0804. The result for CTGGAAGA reads 0.0732. The result for ATTAAAGA reads 0.0773; that for CACCACCC, 0.087; that for ATTAGAAT, 0.0789. Take AGGTTTGC: the binding signal (normalized occupancy) amounted to 0.0755. The result for GTCTCGCA reads 0.073; that for GGGCTTAA, 0.0695. CCCACTGA: the binding signal (normalized occupancy) worked out at 0.0716.

Turning to AAACGTGT, the binding signal (normalized occupancy) came to 0.1. Then TTAGTCAA, with 0.071. Then CATGATCC, with 0.0903. Then ACCTTAAC, with 0.0771; and AGGCTAAA, with 0.071; and GCCTCAGA, with 0.0726. With TCCGTTCA, the binding signal (normalized occupancy) turned out to be 0.0689. GGGCCTAC: the binding signal (normalized occupancy) was 0.0673. The result for AACAATCG reads 0.0715; that for AGTTAAGA, 0.0714; that for AGCGACAA, 0.0793. Then AAGCCACG, with 0.0871; and ATCGATAG, with 0.0826; and GCTCAGGA, with 0.07. The result for ATATATAA reads 0.0904.

Regarding GTACATGA, the binding signal (normalized occupancy) turned out to be 0.0843.

For AGACGAAC, the binding signal (normalized occupancy) is 0.0726. Then AAATGGTT, with 0.072; and AATTCGGT, with 0.0697; and GCTTCTGA, with 0.073. The result for AGTCGCGA reads 0.0755; that for AAATAGTT, 0.0744; that for ATAGCAGG, 0.0727. The result for AGGGTAAA reads 0.0802; that for ATCCAACA, 0.0785.

Regarding ACAAGCAT, the binding signal (normalized occupancy) was determined as 0.0808. Consider GAATTCCA, for which the binding signal (normalized occupancy) is 0.0755. Turning to GGAAATTA, the binding signal (normalized occupancy) was 0.0817. The result for CTTGGGGC reads 0.0692. The result for CCTAGTCC reads 0.0726; that for GACGTATA, 0.0778; that for ACCTGACA, 0.0789.

Turning to ATCCTGTC, the binding signal (normalized occupancy) is 0.0749.

Regarding AACTTATC, the binding signal (normalized occupancy) was found to be 0.075. The result for CTGAAGAC reads 0.0709; that for ACCCCCCA, 0.0865; that for AGATTCGG, 0.0722.

On to AAGCCGCG, for which the binding signal (normalized occupancy) worked out at 0.0688. The result for CTGCCTAC reads 0.072. Then AGCACGGA, with 0.0813; and AATCCAAC, with 0.077. The result for GAACGCTA reads 0.0771.

On to CATGAGAG, for which the binding signal (normalized occupancy) came to 0.0941.

As for CTAACGCA, the binding signal (normalized occupancy) worked out at 0.0719.

With ATTGTACC, the binding signal (normalized occupancy) came to 0.08. Then CGGTTGGA, with 0.0701; and AAGTCAAG, with 0.0765. Then GTTCCTAA, with 0.0746; and GGTTGAAC, with 0.0742.

Turning to CTCGGGTA, the binding signal (normalized occupancy) was 0.0741. The result for GATTTGTA reads 0.0761; that for AAGGTAAC, 0.0807. The result for CAACTAGC reads 0.0711; that for CTGTTTGA, 0.0796; that for AGGATGTA, 0.0795. As for CTATTCGC, the binding signal (normalized occupancy) turned out to be 0.0758. The result for GCAAGCAA reads 0.0714; that for CCAGACCG, 0.0691. The result for AATCGAAG reads 0.075. In the case of CCACCTAC, the binding signal (normalized occupancy) came out at 0.0786.

CCAAACGG: the binding signal (normalized occupancy) was 0.0658.

Regarding CTGAGTCC, the binding signal (normalized occupancy) came out at 0.0714. For GCTAGAAA, the binding signal (normalized occupancy) was found to be 0.0744. The result for AGAACATG reads 0.0823.

Consider GAACGTCC, for which the binding signal (normalized occupancy) worked out at 0.0682.

On to ACCCCTGA, for which the binding signal (normalized occupancy) is 0.087. Then GGATCAAC, with 0.0758. Then ACCTTACT, with 0.0762; and ACGACCCA, with 0.0801. Then GTCTACTA, with 0.075; and AACAGTTC, with 0.0688; and ACTCGAAT, with 0.0723. Turning to GACGTTTA, the binding signal (normalized occupancy) came out at 0.0757.

Take TAAGCATA: the binding signal (normalized occupancy) was found to be 0.075.

As for GAACAATC, the binding signal (normalized occupancy) amounted to 0.0751. Then CTGTCTAA, with 0.0729; and AGTTAGCA, with 0.0755. Then CCGAAAGA, with 0.0675. Then ATTGGCTA, with 0.0713; and ATTACGCG, with 0.0858; and ACAAGTCG, with 0.0779. Regarding AAGTACCT, the binding signal (normalized occupancy) turned out to be 0.0772. Then CGCCTCGC, with 0.0721; and GCATTAAC, with 0.077; and AGAATCGC, with 0.0713. The result for GGGCCACC reads 0.0677; that for CAGTTGGA, 0.071. The result for ACGCATGG reads 0.136. Regarding AGCGAGTC, the binding signal (normalized occupancy) turned out to be 0.0635. Then AGGAACCA, with 0.0734. For the sequence CATCTGCC, the binding signal (normalized occupancy) came to 0.0795. The result for TATAATGA reads 0.0792; that for CACACTCG, 0.0787; that for GGTGGTTA, 0.0838.

Regarding GCCCTAGA, the binding signal (normalized occupancy) stood at 0.0705. The result for AATGAGTA reads 0.077.
